Laboratory results taken from PubChem BioAssay AID504339 (National Center for Advancing Translational Sciences (NCATS), 2011).
In all, about 390,000 compounds went through this assay and about 17,000 (4.4%) were called active. Inconclusive means that the source gave no clear call. Such entries were picked first, then a sample of the others. Calls come from the whole dose curve; as a rule, active = well fitted inhibition curve with a large enough effect; inconclusive = small, poorly fitted or top-dose-only effect; inactive = no such curve, though single readings can be large or run the other way. Potencies of inconclusive entries are doubtful fits and often do not repeat. More than one record can exist for a structure, and the calls need not agree.
% is set by controls: 0 for no effect and ±100 for the full control effect; potency is the fitted concentration of half-maximal effect; tags give direction and shape of the fitted curve.
Note: nearly all actives have a fitted effect of over 50% in size.

The molecules below were run against Lysine-specific demethylase 4A (Homo sapiens) (UniProt O75164) (assay: qHTS Assay for Inhibitors of JMJD2A-Tudor Domain). Details: AlphaScreen JMJD2A-Tudor / H3K4me3 peptide binding; activity change, negative = inhibition: at 114 µM (top of the series).
UniProt O75164, sequence (O75164 whole entry, looked up, the tested form may be a part): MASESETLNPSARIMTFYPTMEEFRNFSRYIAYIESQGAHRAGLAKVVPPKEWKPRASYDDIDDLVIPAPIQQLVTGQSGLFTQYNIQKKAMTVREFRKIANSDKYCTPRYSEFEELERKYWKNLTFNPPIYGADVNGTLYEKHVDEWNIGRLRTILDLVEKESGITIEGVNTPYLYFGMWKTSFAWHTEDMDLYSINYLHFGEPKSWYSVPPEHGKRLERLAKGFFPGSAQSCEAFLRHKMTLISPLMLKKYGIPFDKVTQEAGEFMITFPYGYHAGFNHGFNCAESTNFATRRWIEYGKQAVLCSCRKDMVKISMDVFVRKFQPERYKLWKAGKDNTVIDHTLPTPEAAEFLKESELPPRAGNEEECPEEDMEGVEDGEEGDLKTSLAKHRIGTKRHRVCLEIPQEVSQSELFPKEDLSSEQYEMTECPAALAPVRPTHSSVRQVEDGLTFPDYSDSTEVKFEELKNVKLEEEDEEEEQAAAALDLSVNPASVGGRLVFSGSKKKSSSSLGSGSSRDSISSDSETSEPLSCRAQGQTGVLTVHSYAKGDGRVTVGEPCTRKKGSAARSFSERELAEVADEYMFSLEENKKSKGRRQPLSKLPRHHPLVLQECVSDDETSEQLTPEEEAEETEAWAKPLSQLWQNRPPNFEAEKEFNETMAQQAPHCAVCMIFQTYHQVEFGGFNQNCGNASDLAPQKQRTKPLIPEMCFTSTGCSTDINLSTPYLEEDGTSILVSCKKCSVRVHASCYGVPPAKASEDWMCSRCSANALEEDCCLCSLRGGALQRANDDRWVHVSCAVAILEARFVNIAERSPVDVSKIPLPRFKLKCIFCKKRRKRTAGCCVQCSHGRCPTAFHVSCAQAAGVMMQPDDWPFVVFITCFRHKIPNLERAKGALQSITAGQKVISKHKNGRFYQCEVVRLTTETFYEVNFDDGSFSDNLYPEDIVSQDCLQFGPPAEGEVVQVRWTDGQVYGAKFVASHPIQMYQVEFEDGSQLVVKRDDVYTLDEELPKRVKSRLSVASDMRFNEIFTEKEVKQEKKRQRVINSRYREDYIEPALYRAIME
`CCC(Sc1nnc(-c2ccc(C)c(Cl)c2)n1CC)C(=O)Nc1nccs1` (stereo not given) was tested, and the Potency was active: 89.1 µM.
With `CCOc1ccc(C2C(C(=O)c3ccc(C)o3)=C(O)C(=O)N2c2nc(C)c(C(=O)OC)s2)cc1` (stereo not given) the Potency was inconclusive: 50.1 µM [inhibitor, partial curve].
For `Cc1ccc(C(=O)NCC(c2ccco2)N2CCc3ccccc32)cc1` (stereo not given), the activity change, negative = inhibition was inconclusive: -52.4% [inhibitor].
With `Cc1ccc(NS(=O)(=O)c2ccc3[nH]c4c(c3c2)CCCC4)cc1N(C)C` the Potency was active: 35.5 µM.
In the case of `CC1CCC(NC(=O)c2cccc(S(=O)(=O)N3CCN(c4ccccc4)CC3)c2)CC1` (stereo not given), the Potency is reported as “inactive”.
With `COc1ccccc1/C=C1\N=C(C(C)(C)C)OC1=O` the Potency was active: 50.1 µM.
`O=C(Nc1cnn(Cc2ccc(Cl)cc2)c1)c1ccc([N+](=O)[O-])cc1` was tested, and the Potency was inconclusive: 56.2 µM [inhibitor, partial curve].
With `Cc1cccc(C2c3[nH]c4ccccc4c3CCN2C(=O)c2cc(C(C)C)nc(N)n2)n1` (stereo not given) the Potency was inconclusive: 15.8 µM [inhibitor, full curve].
With `CC1=NN(c2nc(C)cc(C)n2)C(=O)C1CCC(C)C` (stereo not given) the Potency was inconclusive: 5.62 µM [inhibitor, full curve, poor fit].
In the case of `Cc1ccc(-c2cc(=O)c3ccc(F)cc3[nH]2)cc1`, the Potency is reported as inconclusive: 56.2 µM [inhibitor, partial curve].
With `O=C(Nc1ccc(-n2nncc2-c2ccco2)cc1)c1cc2ccccc2oc1=O` the Potency was inconclusive: 89.1 µM [inhibitor, partial curve, poor fit].
In the case of `COC(=O)c1c(NC(=O)COC(=O)c2ccc(Cl)nc2)sc(C)c1C`, the Potency is reported as “inactive”.
For `CC1(OC(=O)CCc2ccccc2)C(=O)C=C2C=C(c3ccc(C#N)cc3)N(Cc3ccccc3)C=C2C1=O` (stereo not given), the Potency was inconclusive: 50.1 µM [inhibitor, partial curve].
For `O=C(Nc1ncc([N+](=O)[O-])s1)c1ccc2c(c1)OCO2`, the Potency was inconclusive: 63.1 µM [inhibitor, partial curve, poor fit].
In the case of `O=S(=O)(Cc1ccccc1)N1CCN(Cc2ccc(Br)cc2)CC1`, the Potency is reported as active: 3.55 µM.
In the case of `CCOC(=O)CC(=O)CSc1nc2ccsc2c(=O)n1Cc1ccccc1`, the Potency is reported as “inactive”.
`O=C(CCC(=O)c1cccs1)Nc1ncccc1O` was tested, and the activity change, negative = inhibition was inconclusive: -59.3% [inhibitor].
`Cc1ccc(S(=O)(=O)N2CCCCC2)cc1C(=O)OC1CCCCC1=O` (stereo not given) was tested, and the Potency was “inactive”.
In the case of `O=C(CN1CCc2ccccc21)Nc1ccc2c(c1)OCO2`, the Potency is reported as inconclusive: 79.4 µM [inhibitor, single point].
In the case of `COc1cc(NS(=O)(=O)N2CCCC2)cc(OC)c1OC`, the Potency is reported as inconclusive: 50.1 µM [inhibitor, partial curve].
`Cc1ccc(C)n1-c1ccc(C(=O)NN)cc1` was tested, and the Potency was active: 50.1 µM.
In the case of `CCn1c(C)c(C)c2cc(C(=O)NCc3ccc(F)cc3)ccc21`, the Potency is reported as inconclusive: 56.2 µM [inhibitor, partial curve].
For `CCNC(=S)N/N=C(\C)c1cc2ccccc2o1`, the Potency was inconclusive: 63.1 µM [inhibitor, single point].
In the case of `O=C(CCC1COc2ccccc2O1)Nc1ncccc1O` (stereo not given), the Potency is reported as active: 50.1 µM.
For `CC1CC(C)CN(C(=O)C(C)N2CCN(S(=O)(=O)c3ccc(Br)s3)CC2)C1` (stereo not given), the Potency was “inactive”.
For `Nc1nnnn1/N=C/c1cccc(OCc2ccccc2Cl)c1`, the Potency was inconclusive: 100 µM [inhibitor, partial curve].
For `COc1ccc(CCNC(=S)N2CCC(C(=O)c3ccc(F)cc3)CC2)cc1OC`, the Potency was inconclusive: 56.2 µM [inhibitor, partial curve].
`Cc1ccc(C2=NS(=O)(=O)N(C)C(C(=O)Nc3ccc(F)cc3F)=C2)cc1` was tested, and the Potency was inconclusive: 50.1 µM [inhibitor, partial curve].
For `O=S(=O)(c1ccccc1)c1nc(-c2ccccc2Cl)oc1NCCCN1CCOCC1`, the Potency was inconclusive: 56.2 µM [inhibitor, partial curve].
For `COc1cccc(CN2CCN(c3cccc(C(F)(F)F)c3)CC2)c1OC`, the Potency was active: 2.24 µM.
In the case of `CCCC(=O)Nc1nnc(S(=O)(=O)N2CCCCCC2)s1`, the Potency is reported as active: 20 µM.
In the case of `CN(c1ccc(C(=O)Nc2cccc([N+](=O)[O-])c2)cc1)S(C)(=O)=O`, the Potency is reported as “inactive”.
For `Nc1nc(NCc2ccco2)nc(N2CCN(Cc3ccccc3)CC2)c1[N+](=O)[O-]`, the Potency was inconclusive: 39.8 µM [inhibitor, partial curve].
For `COc1c(O)c(=O)n2c3ccccc3c3ccnc1c32`, the Potency was inconclusive: 79.4 µM [inhibitor, partial curve].
For `Fc1ccc(Nc2ncnc3onc(-c4ccc(Cl)cc4)c23)cc1Cl`, the Potency was “inactive”.
For `CC/C(=C(/c1ccccc1)c1ccc(OCC[N+](C)(C)C)cc1)c1ccccc1`, the Potency was inconclusive: 39.8 µM [inhibitor, single point].
With `[O-]/C(=C(\C(=S)Nc1cccc2ccccc12)[n+]1cccc(CO)c1)c1ccc(Cl)s1` the Potency was inconclusive: 50.1 µM [inhibitor, partial curve].
In the case of `COc1ccc(C)cc1NC(=O)NC(C)c1c(-n2cccc2)sc(C)c1C` (stereo not given), the Potency is reported as inconclusive: 1.41 µM [inhibitor, full curve, poor fit].
For `N#Cc1cccc(NC(=O)CSc2sc3c(O)cc(=O)[nH]c3c2C#N)c1`, the Potency was inconclusive: 56.2 µM [inhibitor, partial curve].
For `Cc1cccc(NC(=O)CSCC(=O)Nc2ccccc2N2CCCC2)c1`, the Potency was inconclusive: 39.8 µM [inhibitor, partial curve].
With `CC1=N/C(=C\c2ccc([N+](=O)[O-])cc2)C(=O)N1c1cc(Cl)ccc1C` the Potency was inconclusive: 8.91 µM [inhibitor, full curve].
`CN(CCN(C)c1nc(-c2cccs2)nc2ccccc12)C(=O)OC(C)(C)C` was tested, and the Potency was “inactive”.
`CCc1nc(N2CCN(C(=O)c3ccccc3)CC2)c2c3c(sc2n1)CCCC3` was tested, and the Potency was inconclusive: 20 µM [inhibitor, full curve, poor fit].
In the case of `Cc1ccc(OCc2ccc(-c3nc(C#N)c(NCc4cccnc4)o3)o2)cc1`, the Potency is reported as active: 20 µM.
With `CC(=O)Nc1c(O)nc(SCC(=O)Nc2nnc(SCc3ccccc3)s2)[nH]c1=O` the Potency was inconclusive: 100 µM [inhibitor, partial curve].
